# Test results as given in the supplement of paper PMC4604168 (melanoma cell lines).
# This is one part of the list. Most values come without repeats; read them as rough.
# Assays:
# Assay in all cases: cell count relative to DMSO control; melanoma cells; higher = more viable cells
# Settings in all cases: library dose: low library concentration; 72 h
# MZ2-MEL = test system: MZ2-MEL
# MeWo = test system: MeWo
# RPMI7951 = test system: RPMI7951
# RVH-421 = test system: RVH-421
# SkMel28 = test system: SkMel28
# SkMel2 = test system: SkMel2
# SkMel30 = test system: SkMel30
# SkMel5 = test system: SkMel5
# UACC257 = test system: UACC257
# UACC62 = test system: UACC62
# 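Also: cell number obtained by counting DAPI-stained nuclei in high-throughput microscope images with image analysis software, screen run in 1,536-well plates.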
Structure (SMILES),cell count (MZ2-MEL) [%],cell count (MeWo) [%],cell count (RPMI7951) [%],cell count (RVH-421) [%],cell count (SkMel28) [%],cell count (SkMel2) [%],cell count (SkMel30) [%],cell count (SkMel5) [%],cell count (UACC257) [%],cell count (UACC62) [%]
"C#Cc1cccc(Nc2ncnc3cc(OCCOC)c(OCCOC)cc23)c1 [erlotinib] + COc1cc(Nc2ncc(F)c(Nc3ccc4c(n3)NC(=O)C(C)(C)O4)n2)cc(OC)c1OC [Tamatinib] (first compound 0.8 µM, partner dose 0.4 µM)",89.2,83.7,90.6,107,81.8,96.9,95.4,102,79.2,83.2
"Clc1ccc(Nc2nnc(Cc3ccncc3)c3ccccc23)cc1 [vatalanib] + O=S(=O)(c1ccccc1)N(CC(F)(F)F)c1ccc(C(O)(C(F)(F)F)C(F)(F)F)cc1 [T0901317] (first compound 2 µM, partner dose 1.4 µM)",87.8,82.3,92,101,93.3,105,102,81,90.6,104
"Nc1cccc2c1CN(C1CCC(=O)NC1=O)C2=O (stereo not given) [lenalidomide] + C=CCn1c(=O)c2cnc(Nc3ccc(N4CCN(C)CC4)cc3)nc2n1-c1cccc(C(C)(C)O)n1 [MK1775] (first compound 1 µM, partner dose 0.02 µM)",102,91.6,106,112,86.8,94.2,103,102,94.6,96.7
"Nc1cccc2c1CN(C1CCC(=O)NC1=O)C2=O (stereo not given) [lenalidomide] + CC(C)(C)c1cnc(CSc2cnc(NC(=O)C3CCNCC3)s2)o1 [SNS-032] (first compound 1 µM, partner dose 0.01 µM)",98.2,112,97.6,83.9,79.5,80.5,118,108,81,91.3
"Clc1ccc(Nc2nnc(Cc3ccncc3)c3ccccc23)cc1 [vatalanib] + NC(=O)Nc1cc(-c2cccc(F)c2)sc1C(=O)N[C@H]1CCCNC1 [AZD7762] (first compound 2 µM, partner dose 0.02 µM)",101,91.6,76,123,71.8,109,113,89.3,90.4,82.1
"Clc1ccc(Nc2nnc(Cc3ccncc3)c3ccccc23)cc1 [vatalanib] + CO[C@@H]1[C@H](N(C)C(=O)c2ccccc2)C[C@H]2O[C@]1(C)n1c3ccccc3c3c4c(c5c6ccccc6n2c5c31)C(=O)NC4 [Midostaurin] (first compound 2 µM, partner dose 0.08 µM)",86.4,76.4,92.9,97.1,86,77.5,116,73.8,65.1,89.1
"O=C(CCCCCCC(=O)Nc1ccccc1)NO [vorinostat] + C=CCn1c(=O)c2cnc(Nc3ccc(N4CCN(C)CC4)cc3)nc2n1-c1cccc(C(C)(C)O)n1 [MK1775] (first compound 0.08 µM, partner dose 0.02 µM)",113,100,106,102,77.7,96.4,98.3,81.8,101,93
"OCc1c[nH]c2ccccc12 [Indole-3-carbinol] + CC1(C)NC(=O)N(c2ccc([N+](=O)[O-])c(C(F)(F)F)c2)C1=O [nilutamide] (first compound 0.8 µM, partner dose 1 µM)",92.5,104,118,92,98.6,97.2,101,100,113,96.2
"COCC[n+]1c2c(n(Cc3cnccn3)c1C)C(=O)c1ccccc1C2=O + C=CCn1c(=O)c2cnc(Nc3ccc(N4CCN(C)CC4)cc3)nc2n1-c1cccc(C(C)(C)O)n1 [MK1775] (first compound 0.0004 µM, partner dose 0.02 µM)",37.8,94.5,78.6,110,94.2,81.6,85.3,58,68.9,76.8
"Clc1ccc(Nc2nnc(Cc3ccncc3)c3ccccc23)cc1 [vatalanib] + COC(=O)c1sccc1S(=O)(=O)Nc1ccc(Nc2ccccc2)cc1OC [GSK0660] (first compound 2 µM, partner dose 1 µM)",91.7,95.4,103,83.5,76,98.9,109,79.3,77.6,95.8
"Nc1cccc2c1CN(C1CCC(=O)NC1=O)C2=O (stereo not given) [lenalidomide] + CN(NC(=O)CC(=O)NN(C)C(=S)c1ccccc1)C(=S)c1ccccc1 [STA4783] (first compound 1 µM, partner dose 0.006 µM)",105,81.6,115,88.5,80.1,93.1,117,95.4,77.6,74.1
"OCc1c[nH]c2ccccc12 [Indole-3-carbinol] + COc1cc(Nc2ncc(F)c(Nc3ccc4c(n3)NC(=O)C(C)(C)O4)n2)cc(OC)c1OC [Tamatinib] (first compound 0.8 µM, partner dose 0.4 µM)",84.6,90.5,88.1,94.5,89.7,93.6,86.8,88.8,74.5,81.5
"COCC[n+]1c2c(n(Cc3cnccn3)c1C)C(=O)c1ccccc1C2=O + C[C@@H]1CCN(C(=O)CC#N)C[C@@H]1N(C)c1ncnc2[nH]ccc12 [CP690550] (first compound 0.0004 µM, partner dose 1 µM)",45.5,89.8,77.7,79.6,86.9,93.3,1.13,63.9,68.5,101
"OCc1c[nH]c2ccccc12 [Indole-3-carbinol] + Cc1cc(N2CCOCC2)cc2[nH]c(-c3c(NC[C@@H](O)c4cccc(Cl)c4)cc[nH]c3=O)nc12 [BMS536924] (first compound 0.8 µM, partner dose 0.2 µM)",108,86.5,104,92.1,84.6,90.7,56.8,97.4,62.2,85.1
"OCc1c[nH]c2ccccc12 [Indole-3-carbinol] + CN(NC(=O)CC(=O)NN(C)C(=S)c1ccccc1)C(=S)c1ccccc1 [STA4783] (first compound 0.8 µM, partner dose 0.006 µM)",96.3,108,110,99.8,94.3,97.7,70.8,111,77.3,93.4
"COCC[n+]1c2c(n(Cc3cnccn3)c1C)C(=O)c1ccccc1C2=O + O=C(CCCCCCC(=O)Nc1ccccc1)NO [vorinostat] (first compound 0.0004 µM, partner dose 0.08 µM)",45.2,86.5,83.6,81.6,83.3,85.3,101,69.3,67.1,96.5
"Nc1cccc2c1CN(C1CCC(=O)NC1=O)C2=O (stereo not given) [lenalidomide] + CN(C)S(=O)(=O)c1ccc2c(c1)/C(=C/c1cc3c([nH]1)CCCC3)C(=O)N2 [SU6656] (first compound 1 µM, partner dose 0.4 µM)",94.3,82.1,92.9,89.7,80.4,84.9,70.9,79,79.3,56.7
"Cn1c(Nc2ccc(C(F)(F)F)cc2)nc2cc(Oc3ccnc(-c4ncc(C(F)(F)F)[nH]4)c3)ccc21 + Cn1cncc1[C@@](N)(c1ccc(Cl)cc1)c1ccc2c(c1)c(-c1cccc(Cl)c1)cc(=O)n2C [tipifarnib] (first compound 0.08 µM, partner dose 0.01 µM)",78.9,58.8,56.9,58.5,65,56,56.8,77.8,35,44.9
"Cn1c(Nc2ccc(C(F)(F)F)cc2)nc2cc(Oc3ccnc(-c4ncc(C(F)(F)F)[nH]4)c3)ccc21 + CN(NC(=O)CC(=O)NN(C)C(=S)c1ccccc1)C(=S)c1ccccc1 [STA4783] (first compound 0.08 µM, partner dose 0.006 µM)",82.8,60.5,61.4,65,58.7,78.9,53.9,63.9,40.4,62.8
"OCc1c[nH]c2ccccc12 [Indole-3-carbinol] + OCCn1cc(-c2cnc3nnn(Cc4ccc5ncccc5c4)c3n2)cn1 [PF04217903] (first compound 0.8 µM, partner dose 1 µM)",112,102,100,134,95.7,96.5,102,114,116,95.3
"Clc1ccc(Nc2nnc(Cc3ccncc3)c3ccccc23)cc1 [vatalanib] + N#Cc1c(O)c2c(-c3ccc(-c4ccccc4O)cc3)csc2[nH]c1=O [A769662] (first compound 2 µM, partner dose 2 µM)",104,76.6,85.8,114,93.7,93.9,87.2,95.1,83.1,107
"Clc1ccc(Nc2nnc(Cc3ccncc3)c3ccccc23)cc1 [vatalanib] + COc1cc2c(Oc3ccc4[nH]c(C)cc4c3F)ncnc2cc1OCCCN1CCCC1 [cediranib] (first compound 2 µM, partner dose 0.4 µM)",95.5,103,94.4,87.2,93.3,90.8,117,97.8,97.7,90.1
"Cn1c(Nc2ccc(C(F)(F)F)cc2)nc2cc(Oc3ccnc(-c4ncc(C(F)(F)F)[nH]4)c3)ccc21 + CC(C)(C)c1cnc(CSc2cnc(NC(=O)C3CCNCC3)s2)o1 [SNS-032] (first compound 0.08 µM, partner dose 0.01 µM)",73.4,62.9,53.1,61.9,48.4,75.5,58.7,66.3,39.1,42.5
